Out of some 310,000 compounds screened, about 2,200 (0.71%) showed an effect of 50% or more. The effect is printed as a negative number. The list shows a part of the results.

This test deals with human ether-à-go-go-related gene (hERG) potassium channel (human, UniProt Q12809). In words: primary screen, population patch clamp on CHO cells stably expressing hERG.
human ether-à-go-go-related gene (hERG) potassium channel, sequence (Q12809 whole entry, looked up): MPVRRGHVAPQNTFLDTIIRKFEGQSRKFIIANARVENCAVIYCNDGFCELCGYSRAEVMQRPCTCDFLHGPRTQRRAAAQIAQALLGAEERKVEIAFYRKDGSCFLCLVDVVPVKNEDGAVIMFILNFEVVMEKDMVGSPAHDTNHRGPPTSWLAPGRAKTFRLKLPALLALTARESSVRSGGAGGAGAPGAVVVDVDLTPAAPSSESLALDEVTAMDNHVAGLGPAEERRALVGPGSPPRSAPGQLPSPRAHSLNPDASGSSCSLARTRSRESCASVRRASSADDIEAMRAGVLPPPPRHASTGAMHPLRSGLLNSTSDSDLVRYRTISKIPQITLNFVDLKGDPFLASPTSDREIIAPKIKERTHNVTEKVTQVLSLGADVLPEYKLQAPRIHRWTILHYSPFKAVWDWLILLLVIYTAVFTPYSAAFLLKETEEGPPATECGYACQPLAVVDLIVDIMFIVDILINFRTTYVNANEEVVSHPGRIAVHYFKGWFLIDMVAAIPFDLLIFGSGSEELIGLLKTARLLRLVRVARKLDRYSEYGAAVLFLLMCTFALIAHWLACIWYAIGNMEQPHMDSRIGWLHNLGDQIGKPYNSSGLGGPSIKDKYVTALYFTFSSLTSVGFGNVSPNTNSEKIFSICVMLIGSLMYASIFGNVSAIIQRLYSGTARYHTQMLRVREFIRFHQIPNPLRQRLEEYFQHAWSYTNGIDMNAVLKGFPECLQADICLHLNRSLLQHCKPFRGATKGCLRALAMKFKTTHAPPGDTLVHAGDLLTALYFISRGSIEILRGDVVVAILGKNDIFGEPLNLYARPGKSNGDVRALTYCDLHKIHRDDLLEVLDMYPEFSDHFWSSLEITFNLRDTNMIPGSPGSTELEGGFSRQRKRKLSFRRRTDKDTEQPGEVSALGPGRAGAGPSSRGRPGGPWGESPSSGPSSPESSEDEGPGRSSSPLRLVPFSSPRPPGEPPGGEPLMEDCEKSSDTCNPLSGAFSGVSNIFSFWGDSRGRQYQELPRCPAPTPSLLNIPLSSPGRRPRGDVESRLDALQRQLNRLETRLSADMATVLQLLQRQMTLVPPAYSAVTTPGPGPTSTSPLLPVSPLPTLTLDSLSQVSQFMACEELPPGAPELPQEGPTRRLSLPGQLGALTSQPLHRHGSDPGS
On to `CN(C)CCCN(C(=O)c1cc2ccccc2oc1=O)c1nc2ccc(F)cc2s1.Cl`, for which the “hERG current change (%, negative = inhibition) at 1uM” value is recorded as -26.6%. The figure for `Cc1ccc(C)c(NC(=O)COC(=O)c2cc3ccccc3oc2=O)c1` is -1.92%; for `CCOC(=O)N1CCC(N(CCN(C)C)C(=S)Nc2cc(C)ccc2C)CC1` it is 16.7%. The figure for `C[C@H](CCC(=O)O)[C@H]1CC[C@H]2[C@@H]3CC[C@@H]4C[C@H](O)CC[C@]4(C)[C@H]3CC[C@]12C` is 15.8%.

As for `COc1cccc(-c2cc(=O)[nH][nH]2)c1`, the “hERG current change (%, negative = inhibition) at 1uM” value came to 15.2%.

Consider `C#CCOCCOCCOCCNc1nc(N2CCN(C(=O)CCCCCCCCCCNC(=O)Cn3cc(CCCCCN)nn3)CC2)nc(N2CCN(C(=O)CCCCCCCCCCNC(=O)[C@@H](CCC(=O)O)n3cc(CCCCCN)nn3)CC2)n1`, for which the “hERG current change (%, negative = inhibition) at 1uM” value was determined as 10.4%. The figure for `O=C(CSc1nc(=O)n(CCCN2CCOCC2)c2c1CCCC2)Nc1ccc(F)c(F)c1` is -4.91%; for `Cc1cc(OCC(=O)Nc2ccc(S(=O)(=O)N3CCN(C)CC3)cc2)cc(C)c1Cl` it is 0.997%; for `Cc1cc(C)n(C(=O)c2cc3ccccc3c(=O)o2)n1` it is 11.7%.

For `COc1cc(/C=C(/C#N)c2ccc(F)cc2)ccc1OCc1ccc(C(=O)O)o1`, the “hERG current change (%, negative = inhibition) at 1uM” value is 11.3%. Then `Oc1ccc(-c2[nH]nc(-c3ccccc3)c2-c2nc3ccccc3[nH]2)cc1`, with -15.3%; and `COc1ccc(C(C(=O)NC2CCCC2)N(C(=O)c2snc(-c3ccc(F)cc3)c2N)c2cccc(F)c2)cc1` (stereo not shown), with 15%; and `O=C(O)C12CC3CC(C1)CC(n1ncc(NCc4ccccc4)c(Cl)c1=O)(C3)C2`, with 14.6%.

On to `Cc1ccc(S(=O)(=O)c2nnn(-c3cccc(F)c3)c2N)cc1`, for which the “hERG current change (%, negative = inhibition) at 1uM” value is -0.336%.

Turning to `C=CCn1c(SCC(=O)NCCOC)nc2scc(-c3ccco3)c2c1=O`, the “hERG current change (%, negative = inhibition) at 1uM” value is -11.7%.

As to `COC(=O)CCn1nnc(-c2ccc(C(C)C)cc2)n1`, the “hERG current change (%, negative = inhibition) at 1uM” value is reported as 2.69%. As for `CCC(C)(C)n1nnnc1C(c1ccccc1OC)N1CCSCC1` (stereo not shown), the “hERG current change (%, negative = inhibition) at 1uM” value is -5.39%. Then `COc1ccc(CCNS(=O)(=O)c2ccc(Cl)cc2)cc1OC`, with 7.26%; and `CC(=O)Nc1ccc(S(=O)(=O)Nc2ccc3c(c2)CCC3)cc1`, with 17.7%.

As for `Cc1ccc(NC(=O)CCC(=O)NNC(=O)c2ccco2)c(C)c1`, the “hERG current change (%, negative = inhibition) at 1uM” value came out at 4.87%. The figure for `O=C(CSc1nnc(-c2ccccc2)n1C1CCCCC1)N1CCCC1` is 3.37%; for `Cc1nc([N+](=O)[O-])cn1CC(=O)c1ccc(F)cc1` it is 12.1%. Then `CSc1ncc(C(=O)Nc2cc(C)ccc2C)c(C)n1`, with 3.51%; and `CCC(CC)C(=O)Nc1nnc(S(=O)(=O)N2CCCCCC2)s1`, with 11.6%; and `O=C(CCSc1nc(-c2ccco2)cc(C(F)(F)F)n1)N1CCN(c2ccccn2)CC1`, with 14.4%.

Turning to `CCc1ccc(C(=O)N/N=C/c2cccc3ccccc23)nc1`, the “hERG current change (%, negative = inhibition) at 1uM” value amounted to 4.46%.

For the molecule `O=C(Nc1ccc(CN2CCOCC2)cc1)c1cc(Cl)ccc1Cl`, the “hERG current change (%, negative = inhibition) at 1uM” value was 11.6%. Then `COc1cccc(C2CC(c3cccs3)=NN2S(C)(=O)=O)c1OC` (stereo not shown), with 12.9%. Then `O=C(CCc1ccccc1)NNC(=O)COc1ccccc1Cl`, with 13.9%; and `Cl.O=C1C2CCN(CC2)C1Cc1ccc(OCCOc2ccccc2)cc1` (stereo not shown), with -0.241%; and `COC(=O)c1sc(N)c(C(=O)OC)c1COC(=O)C12CC3CC(CC(O)(C3)C1)C2`, with 12.6%. Then `NC(=O)c1nsc(C(=O)N(CC(=O)NCc2ccco2)c2ccccc2F)c1N`, with 1.03%. For `O=C(CCSc1ccccn1)Nc1ccc(Br)cc1`, the “hERG current change (%, negative = inhibition) at 1uM” value was -4.86%. The figure for `FC(F)Oc1ccc(NC(=S)NC2CCCCCCC2)cc1` is 9.62%; for `CC1(C)Cc2c(sc3nc4n(c(=N)c23)CCC4)CO1` it is 3.37%; for `CCOc1ccc(N2C(=O)/C(=C/c3ccco3)N(C)C2=S)cc1` it is 4.2%.

As to `COc1ccc(-c2cc3ccccc3cn2)cc1`, the “hERG current change (%, negative = inhibition) at 1uM” value stood at 14.1%. Then `Cc1ccc(C)c(OCC(=O)NCC(C)(C)N2CCOCC2)c1`, with -7.87%; and `COc1ccc(-c2noc(CCC(=O)NCCCN3CCC(C)CC3)n2)cc1`, with 9.03%; and `C=CCNC(=O)C1CCN(S(=O)(=O)c2cccs2)CC1`, with 17.5%. For the molecule `Cc1[nH]nc2c1C(c1ccoc1)C(C#N)=C(N)O2` (stereo not shown), the “hERG current change (%, negative = inhibition) at 1uM” value is recorded as -9.65%. Take `CC1(CO)COC(c2ccccc2)=N1` (stereo not shown): the “hERG current change (%, negative = inhibition) at 1uM” value was 2.12%. `Cc1ccc(-n2c(C)cc(/C=N/Nc3ccc([N+](=O)[O-])cn3)c2C)c(C)c1`: the “hERG current change (%, negative = inhibition) at 1uM” value was determined as 8.37%.

As to `CCN(CC)CC(=O)N1c2ccccc2Oc2c(c(=O)n(C)c(=O)n2C)C1c1cccc([N+](=O)[O-])c1` (stereo not shown), the “hERG current change (%, negative = inhibition) at 1uM” value is reported as 6.53%. The figure for `O=C1CC(C(=O)N2CCN(c3ccc(F)cc3)CC2)CN1CCc1ccccc1` (stereo not shown) is -2.46%; for `Cn1c(=O)c2c(nc(CN3CCc4ccccc4C3)n2Cc2ccccc2)n(C)c1=O` it is 4.2%. The figure for `O=c1c2cc(N3CCOCC3)ccc2[nH]c(=S)n1CCCN1CCCC1` is -3.39%; for `Clc1ccccc1CN1CCN(c2ccccc2)CC1` it is 20.8%. The figure for `Cc1cc(C)cc(OCc2nc(-c3cccnc3)no2)c1` is 5.05%; for `Cc1ccc2cc(CN(CC3CCCO3)C(=O)c3cccs3)c(=O)[nH]c2c1` (stereo not shown) it is 0.53%; for `Cc1nc(NC(=O)COC(=O)C2=NNC(=O)CC2)c(Cl)cc1Cl` it is -3.34%.

As to `CCOC(=O)C1NN=C(C(=O)c2ccc(C)cc2)C1c1ccc(C)cc1` (stereo not shown), the “hERG current change (%, negative = inhibition) at 1uM” value was 5.25%.

As for `COc1cccc(CC(NC(C)=O)C(=O)NC2CCN(S(=O)(=O)c3ccc(C)cc3)CC2)c1OC` (stereo not shown), the “hERG current change (%, negative = inhibition) at 1uM” value is 15.8%.

Regarding `Cc1ccc(NS(=O)(=O)c2ccc3[nH]c(=O)[nH]c3c2)c(C)c1`, the “hERG current change (%, negative = inhibition) at 1uM” value is recorded as 9.9%. Consider `NS(=O)(=O)c1ccc(CNC(=O)CC23CC4CC(CC(C4)C2)C3)cc1`, for which the “hERG current change (%, negative = inhibition) at 1uM” value is -2.4%.

The values are drawn from article PMC4336329 (PLoS ONE, 2015).
